Assay results taken from PubChem BioAssay AID1477 (National Center for Advancing Translational Sciences (NCATS), 2009).
In all, about 230,000 compounds went through this assay and fewer than 10 were called active. This list was built around the results that the source calls inconclusive (neither active nor inactive); the mix of calls is not that of the screen. Calls come from the whole dose curve; as a rule, active = well fitted curve in the direction sought with a large enough effect; inconclusive = small, poorly fitted or top-dose-only effect, or effect the other way, or another doubt; inactive = no such curve, though single readings can be large or run the other way. No potency is given beside an inconclusive call; the fits are too rough.

Target: Runt-related transcription factor 1 (Homo sapiens) + Core-binding factor subunit beta (Homo sapiens) (UniProt Q01196+Q13951)
Assay: qHTS Assay for Compounds Blocking the Interaction Between CBF-beta and RUNX1 for the Treatment of Acute Myeloid Leukemia
Conditions: AlphaScreen CBFb-His/RUNX1-biotin binding, biochemical; series mostly up to 59.8 µM
How it was run: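 Bead-based AlphaScreen assay; binding partners His-tagged CBF-beta and biotinylated RUNX1 at 30 nM each. Compound exposure 15 min after a 20-min protein preincubation; bead step 90 min; all steps at room temperature.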

UniProt Q01196, sequence (Q01196 whole entry, looked up): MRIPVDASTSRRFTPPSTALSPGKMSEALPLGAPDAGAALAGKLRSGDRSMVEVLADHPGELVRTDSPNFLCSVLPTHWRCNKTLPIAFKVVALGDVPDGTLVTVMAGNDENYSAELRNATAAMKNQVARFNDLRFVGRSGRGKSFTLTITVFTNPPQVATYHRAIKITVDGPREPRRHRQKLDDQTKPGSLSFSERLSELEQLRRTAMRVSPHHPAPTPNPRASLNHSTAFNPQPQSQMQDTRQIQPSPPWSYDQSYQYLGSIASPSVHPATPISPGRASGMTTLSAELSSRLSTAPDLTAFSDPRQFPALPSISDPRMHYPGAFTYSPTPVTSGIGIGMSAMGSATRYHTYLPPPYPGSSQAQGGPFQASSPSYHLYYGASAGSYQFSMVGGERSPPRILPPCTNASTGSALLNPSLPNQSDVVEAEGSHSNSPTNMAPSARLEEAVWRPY
UniProt Q01196, sequence (Q13951 whole entry, looked up): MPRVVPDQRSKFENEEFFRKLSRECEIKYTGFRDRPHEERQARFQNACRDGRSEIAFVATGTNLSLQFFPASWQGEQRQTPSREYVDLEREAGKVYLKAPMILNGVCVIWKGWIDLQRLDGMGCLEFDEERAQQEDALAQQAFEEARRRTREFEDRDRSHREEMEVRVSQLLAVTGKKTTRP

Question: For COc1cccc(/C=N/NC(=O)C(C)n2nc(C)c([N+](=O)[O-])c2C)c1O (stereo not drawn), which Potency is on record?
Answer: inconclusive [inhibitor, single point]

Question: Which Potency does the source give for COc1ccccc1N1C(=O)C2C(C(=O)c3ccccc3)=NN(c3ccccc3OC)C2C1=O (stereo not drawn) here?
Answer: inconclusive [activator, partial curve]

Question: For O=C(CNC(=O)c1ccco1)OCc1ccc(Cl)cc1, which Potency is on record?
Answer: inconclusive [inhibitor, single point]

Question: Which Potency does the source give for CCN1CCN(CC(O)COCCOc2ccc(Br)cc2)CC1 (stereo not drawn) here?
Answer: inconclusive [inhibitor, partial curve]

Question: Which Potency does the source give for O=C(/C=C/c1ccc(N2CCC(c3ccccc3)=N2)cc1)c1ccccc1 here?
Answer: inconclusive [activator, partial curve]

Question: For CCOC(=O)C1=C(C)Nc2nnnn2C1c1c[nH]c2ccccc12 (stereo not drawn), which Potency is on record?
Answer: inactive

Question: Which Potency does the source give for CC1=NN(c2nc3ccccc3[nH]2)C(=O)/C1=C/N(C)C here?
Answer: inconclusive [inhibitor, partial curve]

Question: With COc1c(/C=N/NC(=O)c2ccccc2O)c(CCN(C)C(C)=O)cc2c1OCO2 as the molecule, how does the Potency read?
Answer: inconclusive [inhibitor, full curve]

Question: How did the Potency turn out when C=C1c2c(Cl)ccc(O)c2C(O)=C2C(=O)[C@]3(O)C(O)=C(C(N)=O)C(=O)C(N(C)C)C3C(O)C12 (stereo partly drawn) was run?
Answer: inconclusive [inhibitor, full curve, poor fit]

Question: For [O-]/C(=C(\C(=S)Nc1ccc(SC(F)F)cc1)[n+]1ccccc1)c1cc(Cl)ccc1Cl, which Potency is on record?
Answer: inconclusive [inhibitor, single point]

Question: With C[C@H](c1ccccc1)n1nnc(COCc2ccccc2)c1C#CCOCc1ccccc1 as the molecule, how does the Potency read?
Answer: inconclusive [activator, partial curve]

Question: With CCn1nc(C(=O)Nc2cccc3ccccc23)c(Cl)c1Cl as the molecule, how does the Potency read?
Answer: inconclusive [activator, single point]

Question: For O=C(CS(=O)c1ccc(C(F)(F)F)cc1[N+](=O)[O-])Oc1ccccc1 (stereo not drawn), which Potency is on record?
Answer: inactive

Question: Which Potency does the source give for Oc1ccc(/C=N/N2CCN(C3c4ccccc4-c4ccccc43)CC2)cc1O here?
Answer: inconclusive [inhibitor, single point]

Question: With Cn1nc(-c2ccccc2)c(CSc2ccccc2)c1Cl as the molecule, how does the Potency read?
Answer: inconclusive [activator, single point]

Question: For O=C(NC(=S)Nc1ccc2c(c1)OCCO2)c1cccc2ccccc12, which Potency is on record?
Answer: inconclusive [inhibitor, single point]

Question: For CNc1ccc(/C=C/C(=O)c2ccc3c(c2)OCCO3)cc1[N+](=O)[O-], which Potency is on record?
Answer: inconclusive [inhibitor, single point]

Question: How did the Potency turn out when CC(=O)Nc1ccc(S(=O)(=O)N2C3CCCC2CC(NC(=O)C2CCCCC2)C3)cc1 (stereo not drawn) was run?
Answer: inactive

Question: With O=C(Nc1ccc(-c2ccc3nncn3n2)cc1)c1ccc(Br)o1 as the molecule, how does the Potency read?
Answer: inconclusive [activator, single point]

Question: For COc1ccc(-c2noc(-c3ccccc3-c3ccccc3)n2)cc1OC, which Potency is on record?
Answer: inconclusive [activator, partial curve, poor fit]

Question: Which Potency does the source give for COc1ccccc1OCCCCOc1ccccc1F here?
Answer: inconclusive [activator, single point]

Question: Which Potency does the source give for CN(C)c1ccc(NC(=O)Nc2cccc3ccccc23)cc1 here?
Answer: inconclusive [inhibitor, single point]

Question: How did the Potency turn out when O=S(=O)(NCc1c(Cl)cccc1Oc1ccccc1)c1ccccc1 was run?
Answer: inconclusive [activator, single point]

Question: How did the Potency turn out when CCOc1ccc(C2c3[nH]c4ccccc4c3CCN2Cc2cccn2-c2ncccn2)cc1 (stereo not drawn) was run?
Answer: inconclusive [inhibitor, single point]

Question: With COC(=O)c1ccccc1SC(CC(=O)c1ccccc1)c1ccc(F)cc1 (stereo not drawn) as the molecule, how does the Potency read?
Answer: inconclusive [activator, partial curve]

Question: For O=[N+]([O-])c1ccccc1/C=N/n1c(C2CCCCC2)n[nH]c1=S, which Potency is on record?
Answer: inactive

Question: For COc1ccc(-c2cc(C#N)nc(NN)n2)cc1, which Potency is on record?
Answer: inactive

Question: With Nc1n[nH]c(C2CC2)c1N=Nc1ccc(Cl)c(Cl)c1 as the molecule, how does the Potency read?
Answer: inconclusive [inhibitor, single point]

Question: Which Potency does the source give for Cn1c(=O)[nH]c(=O)c2c1nc(N1CCCCCC1)n2CCSc1nc2ccccc2o1 here?
Answer: inactive

Question: With Cc1oc(-c2ccccc2)cc1C(=O)Nc1ccc(N(C)C)cc1 as the molecule, how does the Potency read?
Answer: inconclusive [inhibitor, single point]

Question: How did the Potency turn out when S=C1NCCc2ccccc2C1c1ccccc1 (stereo not drawn) was run?
Answer: inactive

Question: Which Potency does the source give for N#C/C(=C/c1ccc(F)cc1)S(=O)(=O)c1ccccc1 here?
Answer: inconclusive [activator, single point]

Question: For N#Cc1ccc(N=c2ssnc2Cl)cc1, which Potency is on record?
Answer: inactive

Question: CC(C)OCCCNC(=O)c1c(N)n(Cc2cccs2)c2nc3ccccc3nc12 was tested. Which Potency did it give?
Answer: inconclusive [activator, partial curve]

Question: How did the Potency turn out when CSc1ccccc1-n1nnnc1SCC(=O)NCc1cccs1 was run?
Answer: inactive

Question: With COC(c1ccccc1Br)C(C)/C=C/CCO (stereo not drawn) as the molecule, how does the Potency read?
Answer: inconclusive [inhibitor, partial curve, poor fit]

Question: With O=C(N/N=C/c1ccc(O)cc1O)/C(=C/c1ccccc1)CCO as the molecule, how does the Potency read?
Answer: inconclusive [inhibitor, single point]

Question: With COc1ccc(-c2[nH]ncc2N=Nc2cc(C)cc(C)c2)cc1 as the molecule, how does the Potency read?
Answer: inconclusive [inhibitor, single point]

Question: Which Potency does the source give for Cc1cccc(NC(=O)NC2CC(=O)N(c3ccc4c(c3)OCCO4)C2)n1 (stereo not drawn) here?
Answer: inactive

Question: With Cc1ccccc1C(OCCN(C)C)C1CCCCC1 (stereo not drawn) as the molecule, how does the Potency read?
Answer: inactive

Question: Which Potency does the source give for CCC1=C(OC(=O)N(CC)CC)N2C(=O)OC(=NCCc3c[nH]c4ccccc34)[C@]2(Cc2ccccc2)[C@H]2C1=CC[C@H]1C(=O)NC(=O)[C@H]12 here?
Answer: inconclusive [inhibitor, single point]

Question: COc1ccc(-c2nc(-c3ccccn3)no2)cc1 was tested. Which Potency did it give?
Answer: inconclusive [inhibitor, partial curve]

Question: Which Potency does the source give for C=CCn1cc(/C=N/Nc2nc3ccccc3[nH]2)c2ccccc21 here?
Answer: inconclusive [inhibitor, partial curve]
